Experimental data reported in paper PMC10196724.
No constants are given. Whether binding was seen depends on the method and setting. Binding seen in cells or lysates may run through a third protein. Some results given as binding are weak or reduced against the parent protein; the word gives no strength. For some assays here: Sequences can lack the tags named with a protein.

Chains of the proteins cited; added tags and fusions are not shown.
UniProt P49840: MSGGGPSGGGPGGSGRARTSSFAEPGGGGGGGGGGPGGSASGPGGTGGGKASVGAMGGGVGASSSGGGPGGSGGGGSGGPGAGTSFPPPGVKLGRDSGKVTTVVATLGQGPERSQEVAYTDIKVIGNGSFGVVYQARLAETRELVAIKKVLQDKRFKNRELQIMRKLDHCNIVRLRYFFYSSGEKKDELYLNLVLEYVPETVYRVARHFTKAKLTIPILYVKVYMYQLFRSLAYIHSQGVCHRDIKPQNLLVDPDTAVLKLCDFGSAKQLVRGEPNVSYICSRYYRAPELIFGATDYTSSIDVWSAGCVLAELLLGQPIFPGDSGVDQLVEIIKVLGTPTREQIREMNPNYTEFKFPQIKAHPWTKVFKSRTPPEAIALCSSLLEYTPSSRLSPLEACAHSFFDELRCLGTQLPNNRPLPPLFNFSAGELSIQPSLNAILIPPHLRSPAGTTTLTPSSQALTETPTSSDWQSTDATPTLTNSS
UniProt P49841: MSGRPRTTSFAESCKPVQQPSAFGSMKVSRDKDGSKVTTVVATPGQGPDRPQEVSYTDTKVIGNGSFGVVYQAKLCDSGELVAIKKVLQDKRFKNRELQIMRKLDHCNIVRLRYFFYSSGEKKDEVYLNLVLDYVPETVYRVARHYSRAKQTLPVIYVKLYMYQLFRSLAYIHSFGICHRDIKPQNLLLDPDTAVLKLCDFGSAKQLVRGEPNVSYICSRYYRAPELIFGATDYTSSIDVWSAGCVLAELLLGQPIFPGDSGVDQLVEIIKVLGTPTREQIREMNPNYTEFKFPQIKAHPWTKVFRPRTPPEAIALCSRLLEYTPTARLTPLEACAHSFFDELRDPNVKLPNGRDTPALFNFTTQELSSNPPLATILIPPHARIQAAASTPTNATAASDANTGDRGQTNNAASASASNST

T1: Flag-THRAP3 (human) (UniProt Q9Y2W1)
T1 sequence: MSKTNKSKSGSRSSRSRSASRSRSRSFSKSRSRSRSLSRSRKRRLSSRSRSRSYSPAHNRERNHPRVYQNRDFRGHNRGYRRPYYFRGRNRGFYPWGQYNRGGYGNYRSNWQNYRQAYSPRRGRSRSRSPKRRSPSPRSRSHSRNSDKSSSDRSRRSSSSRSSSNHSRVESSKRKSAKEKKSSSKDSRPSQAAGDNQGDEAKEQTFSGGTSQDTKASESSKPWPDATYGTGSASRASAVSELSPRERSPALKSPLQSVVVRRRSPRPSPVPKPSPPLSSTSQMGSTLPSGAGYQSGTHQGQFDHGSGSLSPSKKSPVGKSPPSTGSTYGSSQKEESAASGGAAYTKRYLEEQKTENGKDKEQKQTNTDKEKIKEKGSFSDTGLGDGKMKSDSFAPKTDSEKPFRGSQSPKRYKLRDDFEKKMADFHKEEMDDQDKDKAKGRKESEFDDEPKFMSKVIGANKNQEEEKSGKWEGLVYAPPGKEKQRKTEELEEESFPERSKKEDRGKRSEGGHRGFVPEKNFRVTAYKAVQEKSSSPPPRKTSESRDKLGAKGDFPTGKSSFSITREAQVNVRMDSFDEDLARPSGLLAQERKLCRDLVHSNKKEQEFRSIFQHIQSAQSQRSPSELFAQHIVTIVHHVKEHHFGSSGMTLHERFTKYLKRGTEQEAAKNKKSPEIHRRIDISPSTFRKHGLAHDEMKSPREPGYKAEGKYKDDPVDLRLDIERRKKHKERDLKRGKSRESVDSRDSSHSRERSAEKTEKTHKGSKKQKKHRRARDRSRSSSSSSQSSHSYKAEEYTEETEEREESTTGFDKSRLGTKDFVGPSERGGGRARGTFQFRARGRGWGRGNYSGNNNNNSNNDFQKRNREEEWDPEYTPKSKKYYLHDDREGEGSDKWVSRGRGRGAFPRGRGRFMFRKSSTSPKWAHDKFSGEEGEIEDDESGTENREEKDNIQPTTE

T2: THRAP3 (human (endogenous in 293T)) (UniProt Q9Y2W1)
T2 sequence: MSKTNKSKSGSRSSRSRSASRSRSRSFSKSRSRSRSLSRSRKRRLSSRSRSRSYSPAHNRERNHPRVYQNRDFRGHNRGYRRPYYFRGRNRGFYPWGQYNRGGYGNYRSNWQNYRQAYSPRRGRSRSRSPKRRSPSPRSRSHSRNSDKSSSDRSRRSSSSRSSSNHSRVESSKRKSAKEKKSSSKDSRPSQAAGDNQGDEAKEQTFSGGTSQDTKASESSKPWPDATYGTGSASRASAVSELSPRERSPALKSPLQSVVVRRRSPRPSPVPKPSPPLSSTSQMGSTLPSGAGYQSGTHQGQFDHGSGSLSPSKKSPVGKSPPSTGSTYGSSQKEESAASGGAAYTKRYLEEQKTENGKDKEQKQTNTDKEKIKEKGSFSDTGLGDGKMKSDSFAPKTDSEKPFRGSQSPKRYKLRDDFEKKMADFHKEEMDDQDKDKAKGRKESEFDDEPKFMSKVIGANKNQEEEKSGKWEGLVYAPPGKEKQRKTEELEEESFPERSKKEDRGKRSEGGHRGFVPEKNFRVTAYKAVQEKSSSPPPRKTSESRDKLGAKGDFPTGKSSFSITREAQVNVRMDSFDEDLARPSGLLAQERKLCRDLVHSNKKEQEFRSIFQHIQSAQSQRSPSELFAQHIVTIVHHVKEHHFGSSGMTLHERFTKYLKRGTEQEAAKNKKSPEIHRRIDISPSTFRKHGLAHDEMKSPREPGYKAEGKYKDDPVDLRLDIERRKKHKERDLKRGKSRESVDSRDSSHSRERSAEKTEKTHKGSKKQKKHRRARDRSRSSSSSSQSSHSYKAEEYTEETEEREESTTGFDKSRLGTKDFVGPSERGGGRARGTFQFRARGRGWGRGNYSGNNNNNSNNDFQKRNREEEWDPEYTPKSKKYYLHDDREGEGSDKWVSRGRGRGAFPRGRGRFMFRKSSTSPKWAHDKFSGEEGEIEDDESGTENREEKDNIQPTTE


How the values were obtained:
Flag-THRAP3 (human) = target: T1, Flag-THRAP3 (human); assay: co-IP; Flag-THRAP3 pulled down with anti-Flag magnetic beads from lysate of transfected cells; immunoblots with anti-GSK3α and anti-GSK3β antibodies (Fig. 6L, M)
[1] = target: T2, THRAP3 (human (endogenous in 293T)); assay: co-IP; endogenous THRAP3 enriched with an anti-THRAP3 antibody, IgG as control; immunoblots with anti-GSK3α and anti-GSK3β antibodies (Fig. 6N)
GSK3α-myc (human) = GSK3α-myc (human) (UniProt P49840); assay: co-IP; binding proteins of GSK3α-myc immunoblotted with anti-THRAP3 antibody (Fig. 6K)

binding (Flag-THRAP3 (human)) | binding [1] | binding (GSK3α-myc (human)) | Molecule
binds | binds | – | GSK3α (from UniProt P49840 1-483) (enzyme)
no binding | no binding | – | GSK3β (from UniProt P49841 1-420) (enzyme)
– | – | binds | THRAP3 (protein, UniProt Q9Y2W1 1-955) MSKTNKSKSGSRSSRSRSASRSRSRSFSKSRSRSRSLSRSRKRRLSSRSRSRSYSPAHNRERNHPRVYQNRDFRGHNRGYRRPYYFRGRNRGFYPWGQYNRGGYGNYRSNWQNYRQAYSPRRGRSRSRSPKRRSPSPRSRSHSRNSDKSSSDRSRRSSSSRSSSNHSRVESSKRKSAKEKKSSSKDSRPSQAAGDNQGDEAKEQTFSGGTSQDTKASESSKPWPDATYGTGSASRASAVSELSPRERSPALKSPLQSVVVRRRSPRPSPVPKPSPPLSSTSQMGSTLPSGAGYQSGTHQGQFDHGSGSLSPSKKSPVGKSPPSTGSTYGSSQKEESAASGGAAYTKRYLEEQKTENGKDKEQKQTNTDKEKIKEKGSFSDTGLGDGKMKSDSFAPKTDSEKPFRGSQSPKRYKLRDDFEKKMADFHKEEMDDQDKDKAKGRKESEFDDEPKFMSKVIGANKNQEEEKSGKWEGLVYAPPGKEKQRKTEELEEESFPERSKKEDRGKRSEGGHRGFVPEKNFRVTAYKAVQEKSSSPPPRKTSESRDKLGAKGDFPTGKSSFSITREAQVNVRMDSFDEDLARPSGLLAQERKLCRDLVHSNKKEQEFRSIFQHIQSAQSQRSPSELFAQHIVTIVHHVKEHHFGSSGMTLHERFTKYLKRGTEQEAAKNKKSPEIHRRIDISPSTFRKHGLAHDEMKSPREPGYKAEGKYKDDPVDLRLDIERRKKHKERDLKRGKSRESVDSRDSSHSRERSAEKTEKTHKGSKKQKKHRRARDRSRSSSSSSQSSHSYKAEEYTEETEEREESTTGFDKSRLGTKDFVGPSERGGGRARGTFQFRARGRGWGRGNYSGNNNNNSNNDFQKRNREEEWDPEYTPKSKKYYLHDDREGEGSDKWVSRGRGRGAFPRGRGRFMFRKSSTSPKWAHDKFSGEEGEIEDDESGTENREEKDNIQPTTE
